In the supplement of paper PMC7125110:
± gives the standard error. Variants at the background level are over-represented here.

B1: glmS ribozyme (parent)
chain: AUAAAAGCGCCAGAACUACAGAAAUGUAGUUGACGAGGAGGAGGUUUAUCGAAUUUUCGGCGGAUGCCUCCAAA

Tests used:
Conditions in all cases: with glucosamine-6-phosphate
glucosamine-6-phosphate [1] = variants of: B1; experiment: self-cleavage kobs at 640 uM GlcN6P; higher = faster cleavage; RNA array
Summary of the method: (§1)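 Barcoded ribozyme variants, transcribed in situ by E. coli RNA polymerase on sequenced MiSeq chips, were followed via a hybridised Cy3 probe at 37 °C. Glucosamine-6-phosphate ranged from 40 μM to 10 mM in HEPES/KCl/Mg(OAc)2 buffer. kobs came from decay fits to per-tile medians, and kcat and KM from weighted Michaelis–Menten fits.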

glucosamine-6-phosphate [2] = variants of: B1; experiment: self-cleavage kobs at 160 uM GlcN6P; higher = faster cleavage; RNA array
Summary of the method: as §1

glucosamine-6-phosphate [3] = variants of: B1; experiment: self-cleavage kobs at 2500 uM GlcN6P; higher = faster cleavage; RNA array
Summary of the method: as §1

glucosamine-6-phosphate [4] = variants of: B1; experiment: self-cleavage kobs at 10000 uM GlcN6P; higher = faster cleavage; RNA array
Summary of the method: as §1

| Variant | self-cleavage kobs at 640 uM GlcN6P (glucosamine-6-phosphate [1]) [s⁻¹] | self-cleavage kobs at 160 uM GlcN6P (glucosamine-6-phosphate [2]) [s⁻¹] | self-cleavage kobs at 2500 uM GlcN6P (glucosamine-6-phosphate [3]) [s⁻¹] | self-cleavage kobs at 10000 uM GlcN6P (glucosamine-6-phosphate [4]) [s⁻¹] |
| --- | --- | --- | --- | --- |
| AUAAAAUCGCCAGUACUACAGAAAUGUAGUUGCCGAGAAGGAGGUUUAUCGAAAUUUCGGCGGAUGCCUCCAAA [G7U A14U A33C G38A U54A] | < 1e-05 |  |  |  |
| AUAAAAUCGCCAGAACUACAGAAAUGUAGUUGUCGAGGAGGAGGUUUUUCGAAUUUUCGGCGGAUGUUUCCAAA [G7U A33U A48U C67U C68U] | < 1e-05 |  |  |  |
| AUAAAAUCGCCAGAACUACAGAAAUGUAGUUGACGGGGAGGAGGUUUAUCGAAUUCUCGGCGGAUGCCUCCAAA [G7U A36G U56C] | < 1e-05 | < 1e-05 |  |  |
| AUAAAAUCGCCAGAACUACAGAAAUGUAGUUGACGAGGAGGCGGUUUAUCGAAUUUUCUGCGGAUGCCUCCAAA [G7U A42C G59U] | < 1e-05 | < 1e-05 | < 1e-05 | < 1e-05 |
| AUAAAAUCGCCAGAACUACAGAAAUGUAGUUGACGAGGAGGAGGUUUAUCGUAUUUUCGGUGGAUGCCUCCAAA [G7U A52U C61U] | < 1e-05 |  |  |  |
| AUAAAAUCGCCAGAACUACAGAAAUGUAGUUGACGAGGAGGAGGUUUAUCGAUUUUUCGGCGUAUGUCUCCAAA [G7U A53U G63U C67U] | < 1e-05 | < 1e-05 | < 1e-05 |  |
| AUAAAAUGGCCAGAACUACAGAAAUGUAGUUGACGAGGAGGCGGUUUAUCGAAUUUUUGGCGGAUGCCUCCAAA [G7U C8G A42C C58U] | < 1e-05 |  | < 1e-05 |  |
| AUAAAAUGGCCAGAACUACAGAAAUGUAGUUGACGAGCAGGAGGUUUAUCGAAUUUUCGGCGGAUGCCUCCAAA [G7U C8G G38C] | < 1e-05 |  |  |  |
| AUAAAAUCGCUAGAACUACAGAAAUGUAGUUGACGAGGAGGAGGGUUAUCGAAUUUUCGGCGGAUGCCUCAAAA [G7U C11U U45G C71A] | < 1e-05 |  |  |  |
| AUAAAAUCGCCAGAACUACAGAAAUGUAGUUGAGGAGGAGGGGGUUUAUCGAAUUUUCGGCCGAUGCCUCCAAA [G7U C34G A42G G62C] | < 1e-05 |  |  |  |
| AUAAAAUCGCCAGAACUACAGAAAUGUAGUUGACGAGGAGGAGGUUUAUAGAAUUUUCGGCGGAUGCCUCCAAA [G7U C50A] | < 1e-05 | < 1e-05 |  | < 1e-05 |
| AUAAAAUCACCAGAAUUACAGAAAUGUAAUUGACGAGGAGGAGGUUUAUCGAUUUUUCAGCGGAUACCGCCAAA [G7U G9A C16U G29A A53U G59A G66A U69G] | < 1e-05 | < 1e-05 |  |  |
| AUAAAAUCCCCAGAACUACAGAAAUGUAGUCGACGAGGAGGAGGCUUAUCGAAUUUUCGGCGGAUGCCUCCAAA [G7U G9C U31C U45C] | < 1e-05 |  | < 1e-05 |  |
| AUAAAAUCGCCAUAUCUACAGAAAUGUAGUUGACGAGGAGGAGGUUUAUAAAAUUUUCGUCGGAUGACUCAAAA [G7U G13U A15U C50A G51A G60U C67A C71A] | 0.000375 ± 0.00012 |  |  |  |
| AUAAAAUCGCCAGAACUACAGAAAUGUAAUUGACGAGGAGGAGGUUUAUCGAAUUUUAGGCGGAUGCCUCCAAA [G7U G29A C58A] | < 1e-05 |  |  |  |
| AUAAAAUCGCCAGAACUACAGAAAUGUACUUGACGAGGAGGAGGUUUAUCGAAUUGUCGGCAGAUGCCUCCAAA [G7U G29C U56G G62A] | < 1e-05 |  |  |  |
| AUAAAAUCGCCAGAACUACAGAAAUGUAUUUGACGAGGAGGAGGUCUAUCGAAUUUUCGGCGGAUGCCUCCAAA [G7U G29U U46C] | < 1e-05 |  | < 1e-05 | < 1e-05 |
| AUAAAAUCGCCAGAACUACAGAAAUGUAGUUUACGAGGAGGAGGUUUAUCGGAUUUUCGGCGGUUGCCUCCAAA [G7U G32U A52G A64U] | < 1e-05 |  | < 1e-05 |  |
| AUAAAAUCGCCAGAACUACAGAAAUGUAGUUGACAAGGAGGAGGUUUAUCGAAUUUUCGGCGGAUGCAUCCAAA [G7U G35A C68A] | < 1e-05 |  | < 1e-05 |  |
| AUAAAAUCGCCAGAACUACAGAAAUGUAGUUGACUAGGAGGAGGUAUAUCGAAUUUGCGGCGGAUGCCUCUAAA [G7U G35U U46A U57G C71U] | < 1e-05 |  |  |  |

| Variant | self-cleavage kobs at 640 uM GlcN6P (glucosamine-6-phosphate [1]) [s⁻¹] | self-cleavage kobs at 160 uM GlcN6P (glucosamine-6-phosphate [2]) [s⁻¹] | self-cleavage kobs at 2500 uM GlcN6P (glucosamine-6-phosphate [3]) [s⁻¹] | self-cleavage kobs at 10000 uM GlcN6P (glucosamine-6-phosphate [4]) [s⁻¹] |
| --- | --- | --- | --- | --- |
| AUAAAAUCGCCAGAACUACAGAAAUGUAGUUGACGAAGAGGAGGUUUCUCGAAUUUUCGGCGGAUGCCUCCAAA [G7U G37A A48C] | < 1e-05 | < 1e-05 | < 1e-05 | < 1e-05 |
| AUAAAAUCGCCAGAACUACAGAAAUGUAGUUGACGAGGAGGAUGUUUAUCGAAUUUUCGGCGGAUGCCUCCAAA [G7U G43U] | < 1e-05 | < 1e-05 |  | < 1e-05 |
| AUAAAAUCGCCAGAACUACAGAAAUGUAGUUGACGAGGAGGAGAUUUAUCGAAUUUUCGGCGGAUGCCUCUAAA [G7U G44A C71U] | < 1e-05 |  | < 1e-05 |  |
| AUAAAAUCGCCAGAACUACAGAAAUGUAGUUGACGAGGAGGAGCUUUAUCGAAUUUUCAGCGGAUGCCUGCAAA [G7U G44C G59A C70G] | < 1e-05 |  | < 1e-05 |  |
| AUAAAAUCGCCAGAACUACAGAAAUGUAGUUGACGAGGAGGAGGUUUAUCGAAUUUUCGACGGAUGCCUCCAAA [G7U G60A] | < 1e-05 |  | < 1e-05 | < 1e-05 |
| AUAAAAUCGCCAGAACUACAGAAAUGUAGGUGACGAGGAGGAGGUUUAUCGAAUUUUCGGCGUAUGCCUCCAAA [G7U U30G G63U] | < 1e-05 |  |  |  |
| AUAAAAUCGCCAGAACUACAGAAAUGUAGUUGACGAGGAGGAGGUAUAUCGAAUUUUCGGCGGAUGCUUCCAAA [G7U U46A C68U] | < 1e-05 |  |  |  |
| AUAAAAUCGCCAGAACUACAGAAAUGUAGUUGACGAGGAGGAGGUUUACCGAAUUUUCGGCGGAUGCCUCCAAA [G7U U49C] | < 1e-05 | < 1e-05 | < 1e-05 | < 1e-05 |
| AUAAAAGAGCCAGAGCUACAGAAAUGUAGUGGACGCGGAGGAGGUUUAUCGAAUUUUCGGCGGAUGCCUCCAAA [C8A A15G U31G A36C] | < 1e-05 |  |  |  |
| AUAAAAGAGCCAGAACUACAGCAAUGUAGUUGACGAGGAGGAGGUUUAUCGAAUUUUCGGCGGAUGCCUCAAAA [C8A A22C C71A] | < 1e-05 |  | < 1e-05 |  |
| AUAAAAGAGCCAGAACUACAGAAAUGUAGUUGUCGAGGAGGAGGUUUAUCGAAUGUUCGGCGGAUGCCUCCAAA [C8A A33U U55G] | < 1e-05 |  |  | < 1e-05 |
| AUAAAAGAGCCAGAACUACAGAAAUGUAGUUGACGAGGAGGUGGCUUAUCGAAUUUUCGGCGGAGGCCUCCAAA [C8A A42U U45C U65G] | < 1e-05 |  | < 1e-05 |  |
| AUAAAAGAGCCAGAACUACAGAAAUGUAGUUGAAGAGGAGGAGGUUUAUCGAAUUUCCGGCGGAUGCCUCCAAA [C8A C34A U57C] | < 1e-05 |  |  |  |
| AUAAAAGAGCCAGAACUACAGAAAUGUAGUUGAGGAGGAGGAGGUUUAUCGAAUUUUCGGGGGAUGCCUCCAAA [C8A C34G C61G] | < 1e-05 |  |  |  |
| AUAAAAGAACCAGCACUACAGAAAUGUAGUUGACGAGGAGGUGGUUUAUCGAUUUUUCGGCGGUUGCCUCCAAA [C8A G9A A14C A42U A53U A64U] | < 1e-05 |  | < 1e-05 |  |
| AUAAAAGAGCCAGAACUACAGAAAUGUAGUUAACGAGGUGGAGGUUUAUCGAAUUUUCGGCGGAUGCCGCCAAA [C8A G32A A39U U69G] | < 1e-05 |  |  |  |
| AUAAAAGAGCCAGAACUACAGAAAUGUAGUUGACGACAAGGAGGUUUAUCGAAUUUUCGGCGGAUGCCUUCAAA [C8A G37C G38A C70U] | < 1e-05 |  |  |  |
| AUAAAAGAGCCAGAACUACAGAAAUGUAGUUGACGAGGAGUAGGUUUAUCGAAUUUUCGGCAGAUGCCUCCAAA [C8A G41U G62A] | < 1e-05 |  | < 1e-05 |  |
| AUAAAAGAGCCAGAACUACAGAAAUGUAGAUUAUAAGGAGGAGGUUUAUCGAAUUAUCGGCGGAUACCUCCAAA [C8A U30A G32U C34U G35A U56A G66A] | < 1e-05 |  |  | < 1e-05 |
| AUAAAAGAGCCAGAACUACAGAAAUGUAGUCGACGAGGUGGAGGUUUAUCGAGUUUUCGGCUGAUGUCUCCAAA [C8A U31C A39U A53G G62U C67U] | < 1e-05 |  | < 1e-05 |  |
